We go through 70 compounds from PubChem BioAssay AID434955 (Southern Research Specialized Biocontainment Screening …, 2010).

Some of the results follow. Shown are side measurements of this screen, not its main read-out; they come without a call. Compounds called inactive in the main read-out are mostly missing here.

A short description of the assay: beta-lactam sensitization of Mtb H37Rv, H37Rv (AID 434955).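 Also: growth measured after seven days incubation then overnight dye step; 0% = bacteria only wells and 100% = bacteria with antibiotic.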 The note with it: M. tuberculosis H37Rv growth with meropenem, percent inhibition; measured here: primary screen without meropenem; at 25 µM.
In the case of `Cc1ccccc1C(=O)Nc1ccccc1N1CCN(C(=O)c2ccccc2)CC1`, the inhibition came to 4.68%.
With `O=C1c2ccccc2C(Nc2ccc3c(c2)OCCO3)N1c1ccccn1` (stereo not given), the inhibition was -4.15%.
Then `CC(=O)Nc1ccc(C(=O)OCCCOC(=O)c2ccc(NC(C)=O)cc2)cc1`, with 3.48%.
Consider `CCCCOC(=O)COc1cc(C)cc2oc(=O)c3c(c12)CCC3`, for which the inhibition stood at 0.54%.
Regarding `CCC(=O)N1CC2(C)CN(C(=O)CC)CC(C)(C1)C2`, the inhibition is -2.78%.
Next, `O=C1CC(c2ccc(Cl)cc2)CC(O)=C1C=NCc1ccc(Cl)c(Cl)c1` (stereo not given): 4.95%; `COc1ccc(N2C(=O)NC(=O)/C(=C\c3ccc([N+](=O)[O-])s3)C2=O)cc1`: -7.84%; `O=S1(=O)CCO[C@H]2Cc3ccccc3[C@H]2N1Cc1ccccc1`: 14.2%.
As for `Cc1ccc(CSC2=NCCN2S(=O)(=O)c2ccc(F)cc2)cc1`, the inhibition is 8.02%.
Then `CCCC(=O)Nc1nc(-c2ccccc2)ns1`, with 3.2%; and `COc1ccc(C(=O)N2CCCCCC2)cc1OC1CCN(C(C)=O)CC1`, with 6.24%.
As for `Cn1c(C=O)c(-c2ccc3cc[nH]c3c2)c2ccccc21`, the inhibition worked out at 74.6%.
With `CCCCN(CC)CCNS(=O)(=O)c1ccc2c(c1)oc(=O)n2C`, the inhibition is -0.75%.
On to `COc1cc2[nH]c(=O)n(CCCC(=O)N3CC=C(c4ccccc4)CC3)c(=O)c2cc1OC`, for which the inhibition is -2.75%.
Next, `Cc1ccc(-c2[nH]ncc2CN2CCN(C(=O)c3cccs3)CC2)cc1C`: 6.73%.
As for `CN(CCCN1CCCCC1)C(=O)c1cc(COc2ccc(F)cc2F)on1`, the inhibition was determined as 0.64%.
For the compound `Cc1ccc(C)c(-c2nnc(NC(=O)Cc3ccc(F)cc3)o2)c1`, the inhibition was found to be 69.8%.
Take `CCCNc1c(NS(=O)(=O)c2ccc(Br)cc2)c(=O)oc2ccccc12`: the inhibition was found to be 12.7%.
For the compound `COc1ccc(C2CC(c3ccc(Cl)cc3Cl)Nc3nc(N)nn32)cc1` (stereo not given), the inhibition is -0.54%.
For the compound `CCCCn1nc(NS(=O)(=O)c2cccc3nonc23)c2cc3cccc(C)c3nc21`, the inhibition stood at 2.89%.
Then `CC(=O)N1c2ccc(S(=O)(=O)N3CCCC3C(=O)NCc3ccc(Cl)cc3)cc2CC1C` (stereo not given), with 2.84%.
Take `O=C(COC(=O)C1CC1)c1c[nH]c2ccccc12`: the inhibition was 38.7%.
Consider `COc1ccc(-c2nc(CSCC(=O)N3CCC4(CC3)OCCO4)c(C)o2)cc1OC`, for which the inhibition was 2.14%.
Consider `Cc1nc2ccccn2c1C(=O)NNC(=O)Nc1ccccc1`, for which the inhibition was -2.53%.
As for `O=C(Nc1cc([N+](=O)[O-])ccc1C(=O)NCCN1CCOCC1)c1ccccc1`, the inhibition is 5.18%.
On to `O=C(NCc1nc2ncc(Br)cc2[nH]1)c1ccccc1`, for which the inhibition was 35.2%.
In the case of `C=CCc1cc(Cl)ccc1OCCOCCNCCOC`, the inhibition was -11.6%.
As to `NC(=O)C1CCN(C(=O)CCNS(=O)(=O)c2cc(Br)cnc2N)CC1`, the inhibition was -3.44%.
Then `COc1ccccc1N1CCN(c2cc(C)nc3nc(C)nn23)CC1`, with 4.33%; and `CN(C)C(=O)CSc1nnc(C23CC4CC(CC(C4)C2)C3)o1`, with 22.9%.
As for `Cc1c(C(=O)c2ccccc2)oc2ccc3ccccc3c12`, the inhibition stood at 17.1%.
On to `O=C(OCC1CC(c2ccccc2Cl)=NO1)c1ccc(Br)cc1` (stereo not given), for which the inhibition came to 18%.
Then `Cn1nnnc1Sc1ncnc2scc(-c3ccc(C(F)(F)F)cc3)c12`, with 63.6%; and `CCC(C)NC(=O)/C=C/c1cccs1` (stereo not given), with 2.22%; and `O=C(ONc1ccc(N=NC(=O)c2ccccc2O)cc1)c1ccccc1`, with -1.07%.
Next, `COc1c(F)c(F)c(C(=O)O)c(Nc2ccc(C)cc2)c1F`: -11.6%.
On to `COc1ccccc1C(=O)Nc1ccc2c3c(cccc13)CC2`, for which the inhibition is 42.2%.
As for `CCOC(=O)N1CCN(C2CCCN(C(=O)c3ccccc3N(C)C)C2)CC1` (stereo not given), the inhibition came out at 1.52%.
In the case of `CCOC(=O)c1sc2ncnc(NCC(c3cccs3)N(C)C)c2c1C` (stereo not given), the inhibition came to 97.1%.
Next, `CC(C)(C)c1ccc(-n2ncc3c2CCCC3NC(=O)CN2CCCC2=O)cc1` (stereo not given): -2.44%; `Cc1c(CC(=O)NCCCC(=O)O)c(=O)oc2cc3oc4c(c3cc12)CCCC4`: -3.62%.
As to `N=c1c(S(=O)(=O)c2ccc(Cl)cc2)cc2c(=O)n3ccccc3nc2n1Cc1cccnc1`, the inhibition was -2.06%.
As to `CCC(C)N1CC(=O)N2C(c3ccc(OC)cc3OC)c3[nH]c4ccccc4c3C[C@H]2C1=O` (stereo not given in full), the inhibition worked out at 6.67%.
On to `O=C(NCCc1ccccc1)c1ccc(-n2cnnn2)cc1`, for which the inhibition is -11.9%.
Take `Cn1c(=O)c2c(nc(NCCCN3CCOCC3)n2Cc2ccc(Cl)cc2)n(C)c1=O`: the inhibition was -2.92%.
With `Cc1ncc([N+](=O)[O-])n1CC(=O)NCc1ccccc1`, the inhibition was found to be 0.39%.
With `CCCCCC(=O)Nc1cccc(C2=NOC3(C2)C[C@@H](C(N)=O)N(C(=O)CC(c2ccccc2)c2ccccc2)C3)c1` (stereo not given in full), the inhibition is 47.9%.
On to `CC1CCCN(C(=O)CSc2nnc3n(C4CCCC4)c(=O)c4ccccc4n23)C1` (stereo not given), for which the inhibition was 6.34%.
In the case of `CCCCn1c(=N)n(CC(O)COc2cccc(C)c2)c2ccccc21` (stereo not given), the inhibition was 94.5%.
Turning to `COc1ccc(-c2cc3ccc(O)cc3oc2=O)cc1`, the inhibition was 1%.
As to `CC(=O)c1ccc(NS(=O)(=O)c2ccc3c(c2)N(C)CCO3)cc1`, the inhibition came out at 0.95%.
With `O=C(c1ccccc1)N1CCN(C(=O)c2ccccc2Br)CC1`, the inhibition was -6.74%.
In the case of `CCN(CC)CCNC(=O)C1c2ccccc2C(=O)N(CCOC)C1c1ccc(F)cc1` (stereo not given), the inhibition came out at 8.81%.
For the compound `Cc1ccc(C)c(C(=O)CCC(=O)N2CCN(c3ncccn3)CC2)c1`, the inhibition worked out at 7.36%.
On to `O/N=C\c1ccc(-c2ccccc2)o1`, for which the inhibition was determined as 70.7%.
Then `O=[N+]([O-])c1ccc(/C=C2\CCC(C3=CCCC3)=C2N2CCOCC2)cc1`, with 0.75%; and `COc1ccccc1Nc1nc(=O)[nH]nc1C`, with -3.57%.
With `Cc1c(C(=O)N2CCN(CCc3ccccn3)CC2)oc2ccc(F)cc12`, the inhibition was 0.34%.
On to `CCN(CC)c1ccc(N2C(=O)/C(=C/c3cccnc3)SC2=S)cc1`, for which the inhibition worked out at 1.41%.
Then `N#C/C(=N/O)c1nc(-c2ccc(F)cc2)cs1`, with 71.7%; and `Cc1cc(C(=O)NCc2ccccc2)no1`, with -3.28%.
`COc1ccc(C2c3[nH]c4ccccc4c3C[C@H]3C(=O)N(CCCO)CC(=O)N23)c(OC)c1` (stereo not given in full): the inhibition was -0.79%.
On to `CCN1CCN(C(=O)C2CC(c3ccc(F)cc3)=NO2)CC1` (stereo not given), for which the inhibition came out at 0.03%.
For the compound `COCCNC(=O)c1ccc2c(=O)n(CCOC)c(=O)[nH]c2c1`, the inhibition is 0.12%.
As to `O=C(NCCCc1ccncc1)C1CCC(=O)N(Cc2ccc(Cl)cc2)C1` (stereo not given), the inhibition was 0.08%.
Consider `Brc1ccc(-c2ccc(C3Nc4cccc5cccc(c45)N3)o2)cc1`, for which the inhibition is 90.2%.
Next, `OCCN(Cc1ccccc1)Cc1cccc(C(F)(F)F)c1`: 20.1%.
Consider `CCCC(C)c1nc(C(N)=O)c2[nH]c(=O)n(-c3ccc(OC)c(OC)c3)c2n1` (stereo not given), for which the inhibition was found to be 2.8%.
Turning to `O=C(NC1CCCN(c2ccc(C(F)(F)F)cn2)C1)c1ccnc(Cl)c1` (stereo not given), the inhibition worked out at 14.9%.
With `COCCCNC(=O)c1ccc(Cn2c(=O)c3ccccc3n(Cc3ccccc3C)c2=O)cc1`, the inhibition stood at 18.4%.

Usually inhibition stands for the drop in the measured response relative to a control, in per cent.
